Laboratory results from PubChem BioAssay AID1030 (National Center for Advancing Translational Sciences (NCATS), 2008).
Where “and” joins values, the source holds several entries; their conditions need not be identical. Equal values may be shown once. The whole screen tested about 220,000 compounds, of which about 16,000 (7.3%) were called active. The shares of active, inactive and inconclusive entries below differ from those in the screen. Calls come from the whole dose curve; as a rule, active = well fitted inhibition curve with a large enough effect (not every such curve was filed as active); inconclusive = small, poorly fitted or top-dose-only effect, or another doubt; inactive = no such curve, though single readings can be large or run the other way. Potencies of inconclusive entries are left out as doubtful fits.

Target: Aldehyde dehydrogenase 1A1 (Homo sapiens) (UniProt P00352)
Assay: qHTS Assay for Inhibitors of Aldehyde Dehydrogenase 1 (ALDH1A1);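 for activity, negative = inhibition: plate controls were no enzyme wells and a reference inhibitor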
Settings: Purified ALDH1A1, NADH fluorescence, propionaldehyde substrate; series mostly up to 75.3 µM
Potency is the fitted concentration of half-maximal effect; tags give direction and shape of the fitted curve.

UniProt P00352, sequence (P00352 whole entry, looked up): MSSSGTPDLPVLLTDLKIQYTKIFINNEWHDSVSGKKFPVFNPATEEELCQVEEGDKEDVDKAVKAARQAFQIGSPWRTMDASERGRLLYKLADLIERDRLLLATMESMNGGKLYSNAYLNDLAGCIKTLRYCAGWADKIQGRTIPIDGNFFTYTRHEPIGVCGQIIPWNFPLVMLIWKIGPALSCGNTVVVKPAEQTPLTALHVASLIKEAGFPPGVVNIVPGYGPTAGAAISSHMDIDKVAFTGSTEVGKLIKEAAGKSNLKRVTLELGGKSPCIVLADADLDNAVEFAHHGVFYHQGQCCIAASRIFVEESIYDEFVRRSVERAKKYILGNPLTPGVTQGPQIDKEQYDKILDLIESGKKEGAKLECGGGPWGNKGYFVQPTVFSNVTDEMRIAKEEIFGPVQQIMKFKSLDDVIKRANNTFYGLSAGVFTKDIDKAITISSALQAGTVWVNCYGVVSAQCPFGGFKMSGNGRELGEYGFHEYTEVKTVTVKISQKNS

**Q.** Which Potency does the source give for `O=C(Nc1nc2ccccc2s1)c1ccc(N2CCCCC2)c([N+](=O)[O-])c1` here?
**A.** active: 11.2 µM

**Q.** How did the Potency turn out when `O=C(Oc1c(Cl)cc(Cl)c2cccnc12)c1ccco1` was run?
**A.** inconclusive [inhibitor, single point]

**Q.** For `Cc1ccc(C2CC2C(=O)NNC(=S)Nc2cccc(C)c2)cc1` (stereo not drawn), which Potency is on record?
**A.** active: 17.8 µM

**Q.** `O=C(Nc1c2c(nn1-c1ccc(F)cc1)CS(=O)(=O)C2)C12CC3CC(CC(C3)C1)C2` was tested. Which Potency did it give?
**A.** active: 3.98 µM

**Q.** With `CCOC(=O)CNc1c(-c2ccc(OC)cc2)nc2ccc(Cl)cn12` as the molecule, how does the Potency read?
**A.** inconclusive [inhibitor, single point]

**Q.** With `CC(C)(C)c1ccc(S(=O)(=O)NCc2ccc(C(=O)NCc3ccccn3)cc2)cc1` as the molecule, how does the Potency read?
**A.** inconclusive [inhibitor, partial curve]

**Q.** Which Potency does the source give for `Cc1ccc(S(=O)(=O)Cn2nnnc2CN(Cc2ccco2)Cc2cccs2)cc1` here?
**A.** inconclusive [inhibitor, single point]

**Q.** Which Potency does the source give for `C=CCn1c(COc2ccc(F)cc2)nnc1SCC(=O)c1c[nH]c2c(CC)cccc12` here?
**A.** inactive

**Q.** Which Potency does the source give for `COc1ccc(-n2cnnc2SCC(=O)Nc2cc(S(=O)(=O)N3CCCCC3)ccc2C)cc1` here?
**A.** inactive

**Q.** With `OCC1(CCc2ccccc2)CCN(Cc2cc(Cl)ccc2O)CC1` as the molecule, how does the Potency read?
**A.** inconclusive [inhibitor, single point]

**Q.** With `Cc1cccc(CC(=O)Nc2cc(=O)n(C)c(=O)n2C)c1` as the molecule, how does the Potency read?
**A.** inconclusive [inhibitor, single point]

**Q.** With `CCn1c(COc2cccc(C)c2C)nnc1SCC(=O)Nc1cc(C)on1` as the molecule, how does the Potency read?
**A.** inactive

**Q.** With `O=C(CSc1cccc[n+]1[O-])N1CCc2ccccc21` as the molecule, how does the Potency read?
**A.** inactive

**Q.** How did the activity, negative = inhibition turn out when `COC(=O)C1=C(C(=O)OC)[C@@H]2Nc3ccccc3[C@@]23C[C@@H](C(=O)OC)N(S(=O)(=O)c2ccc4c(c2)OCCN4C)C3=N1` was run?
**A.** inactive: 3.06% [at 13.5 µM]

**Q.** With `O=C(Nc1nc2ccc(S(=O)(=O)N3CCCC3)cc2s1)c1ccco1` as the molecule, how does the Potency read?
**A.** inconclusive [inhibitor, single point]

**Q.** With `O=c1[nH]c(CN2CCN(c3ccccc3O)CC2)nc2ccccc12` as the molecule, how does the Potency read?
**A.** inconclusive [inhibitor, partial curve]

**Q.** For `CCNC(=O)OCC(CC)NC(=O)OCC(C)C` (stereo not drawn), which Potency is on record?
**A.** inactive

**Q.** `COc1ccc(CCNC(=O)CC2Nc3ccccc3NC2=O)cc1OC` (stereo not drawn) was tested. Which Potency did it give?
**A.** inconclusive [inhibitor, partial curve]

**Q.** For `O=c1c(Br)c(Br)cnn1-c1ccccc1`, which Potency is on record?
**A.** active: 7.08 µM

**Q.** With `CN(C)c1ccc(/C=N/NC(=O)c2ccco2)cc1` as the molecule, how does the Potency read?
**A.** inconclusive [inhibitor, single point]

**Q.** Which Potency does the source give for `O=C(O)Cn1cc(C(=O)c2ccco2)c2ccccc21` here?
**A.** inconclusive [inhibitor, single point]

**Q.** Which Potency does the source give for `Oc1ccc(/C=N/Nc2ccc3ccccc3c2)c(O)c1` here?
**A.** inconclusive [inhibitor, single point]

**Q.** For `O=C(COC(=O)CCC(=O)c1ccc(F)cc1)Nc1ccc(N2CCOCC2)cc1`, which Potency is on record?
**A.** inactive

**Q.** With `COc1ccc(Cn2nnnc2C(c2cc3cccc(C)c3[nH]c2=O)N2CCOCC2)cc1` (stereo not drawn) as the molecule, how does the Potency read?
**A.** inconclusive [inhibitor, single point]

**Q.** For `Cc1c(N2C(=O)c3ccc4c5c(ccc(c35)C2=O)CC4)c(=O)n(-c2ccccc2)n1C`, which Potency is on record?
**A.** inconclusive [inhibitor, partial curve]

**Q.** `COc1cccc(C(=O)Nc2cc(S(=O)(=O)N3CCCCC3)ccc2OC)c1` was tested. Which Potency did it give?
**A.** inconclusive [inhibitor, partial curve]

**Q.** For `CCCn1nnnc1SCC(=O)c1ccc2c(c1)OCCO2`, which Potency is on record?
**A.** active: 3.16 µM

**Q.** `CC(C)n1nnc2ccccc2c1=O` was tested. Which Potency did it give?
**A.** inconclusive [inhibitor, partial curve]

**Q.** With `Cn1c(C(=O)NCC2CCCO2)cc2c(=O)n3ccccc3nc21` (stereo not drawn) as the molecule, how does the Potency read?
**A.** inconclusive [inhibitor, partial curve]

**Q.** How did the Potency turn out when `O=c1[nH]c2ccccc2nc1/C=C/c1ccc(F)cc1` was run?
**A.** inconclusive [inhibitor, partial curve]

**Q.** `COc1ccc(CCNC(=O)c2cc(-c3ccco3)on2)cc1OC` was tested. Which Potency did it give?
**A.** inactive

**Q.** `COc1ccc(C(=O)c2ccc(OC)c(N)c2)cc1N` was tested. Which Potency did it give?
**A.** active: 20 µM

**Q.** For `Cc1oc2c(CN3CCCC3)c(O)ccc2c(=O)c1-c1ccccc1`, which Potency is on record?
**A.** inconclusive [inhibitor, partial curve]

**Q.** Which Potency does the source give for `S=C(NCCCN1CCOCC1)Nc1cccc(-c2nnc3n2CCCCC3)c1` here?
**A.** inactive

**Q.** Which Potency does the source give for `CCOC(CNC(=O)c1ccc(N2CCc3ccccc32)c([N+](=O)[O-])c1)OCC` here?
**A.** active: 10 µM

**Q.** For `O=C(N/C=C/c1ccccc1)Nc1ccc(Cl)cc1`, which Potency is on record?
**A.** inconclusive [inhibitor, partial curve]

**Q.** Which Potency does the source give for `CCN(C(=O)COC(=O)c1cc([N+](=O)[O-])ccc1N1CCCCC1)C1CCS(=O)(=O)C1` (stereo not drawn) here?
**A.** active: 14.1 µM

**Q.** Which Potency does the source give for `COc1ccc(C(=O)/C=C/NCc2ccc(F)cc2)cc1OC` here?
**A.** active: 22.4 µM

**Q.** With `CN1CCN(C2=C(Cl)C(=O)N(CCc3ccccc3)C2=O)CC1` as the molecule, how does the Potency read?
**A.** inconclusive [inhibitor, single point]

**Q.** For `CCCC12CN3CC(C)(CN(C1)C3c1ccc(OC)cc1)C2=O` (stereo not drawn), which Potency is on record?
**A.** inconclusive [inhibitor, partial curve]

**Q.** `CCOC(=O)C(C)N1C(=O)S/C(=C/c2cc(C)n(-c3ccccn3)c2C)C1=O` (stereo not drawn) was tested. Which Potency did it give?
**A.** inconclusive [inhibitor, single point]

**Q.** For `CC(=O)NC1Sc2ccccc2N=C1c1ccccc1` (stereo not drawn), which Potency is on record?
**A.** active: 25.1 µM

**Q.** `O=C(CSc1nncs1)N1CCN(S(=O)(=O)c2ccccc2)CC1` was tested. Which Potency did it give?
**A.** inactive

**Q.** How did the Potency turn out when `CCCn1c(-c2ccc[nH]c2=O)nc2ccccc21` was run?
**A.** inconclusive [inhibitor, partial curve]

**Q.** Which Potency does the source give for `Cc1cc(N2CCN(C(=O)c3ccco3)CC2)nc(-c2ccccc2)n1` here?
**A.** active: 6.31 µM

**Q.** With `CN1CCN(c2ccccc2NC(=O)c2ccc(N3CCCC3)c([N+](=O)[O-])c2)CC1` as the molecule, how does the Potency read?
**A.** inconclusive [inhibitor, partial curve]

**Q.** `CCCOC(=O)CSc1nnc(-c2ccc(Cl)cc2Cl)o1` was tested. Which Potency did it give?
**A.** inconclusive [inhibitor, partial curve]

**Q.** Which Potency does the source give for `Cc1ccc(/C=C/C(=O)O)cc1S(=O)(=O)NCCCO` here?
**A.** inactive

**Q.** With `O=C(CCc1nc2ccccc2[nH]1)N1CCc2ccccc2C1` as the molecule, how does the Potency read?
**A.** inactive

**Q.** How did the Potency turn out when `CCCN1C(=O)c2ccc(C(=O)Nc3nccs3)cc2C1=O` was run?
**A.** active: 0.282 µM

**Q.** With `O=C(Oc1ccc2c(-c3ccccc3)cc(=O)oc2c1)C1CCCCC1` as the molecule, how does the Potency read?
**A.** active: 2.24 µM

**Q.** For `Fc1ccccc1C(c1nnnn1Cc1ccc2c(c1)OCO2)N1CCN(Cc2ccccc2)CC1` (stereo not drawn), which Potency is on record?
**A.** inconclusive [inhibitor, partial curve]

**Q.** Which Potency does the source give for `O=c1[nH]c(=O)c2nnc(N/N=C\c3ccc(O)cc3)nc2[nH]1` here?
**A.** inactive

**Q.** For `NC(=O)NC1NC(=O)NC1=O` (stereo not drawn), which Potency is on record?
**A.** inactive

**Q.** How did the Potency turn out when `COC(=O)Nc1nc(-c2ccccc2)c(C(=O)c2ccc(Cl)cc2)s1` was run?
**A.** inactive

**Q.** Which Potency does the source give for `COc1ccc(CN(C)CC(=O)Nc2ccc(Cl)cc2C(F)(F)F)c(OC)c1` here?
**A.** inconclusive [inhibitor, single point]

**Q.** `O=C(CNC(=O)c1cccs1)OCC(=O)c1ccc2ccccc2c1` was tested. Which Potency did it give?
**A.** inconclusive [inhibitor, single point]

**Q.** For `CCOC(=O)CC1=CC(C)(CC(=O)OCC)C(C#N)(C#N)C(N)=C1C#N` (stereo not drawn), which Potency is on record?
**A.** inconclusive [inhibitor, single point]

**Q.** `C/C(CCN1CCc2nc(-c3ccccc3)c(-c3ccccc3)cc2C1)=N\O[C@@H](C)c1cn([C@H](CO)Cc2ccccc2)nn1` was tested. Which activity, negative = inhibition did it give?
**A.** inactive: 15.3% [at 13.5 µM] and inactive: 2.83% [at 13.5 µM]

**Q.** `O=c1c2c3c(sc2n2cnnc2n1Cc1ccccc1)CN(Cc1ccccc1)CC3` was tested. Which Potency did it give?
**A.** inconclusive [inhibitor, partial curve]

**Q.** `O=C(NCc1cccs1)c1ccc2c(c1)ncn2C1CCCC1` was tested. Which Potency did it give?
**A.** inconclusive [inhibitor, single point]

**Q.** How did the Potency turn out when `CCOC(=O)C1CCN(Cc2c(O)ccc3ccccc23)CC1` was run?
**A.** inconclusive [inhibitor, single point]

**Q.** How did the Potency turn out when `CNc1nc(-c2ccc3c(c2)CCN3C(=O)CC(C)(C)C)c(C)s1` was run?
**A.** inactive

**Q.** For `COCCN1CN(S(=O)(=O)c2ccccc2)c2nc3ccccc3nc21`, which Potency is on record?
**A.** inactive

**Q.** `COc1ccc(NC(=O)Nc2nnc(N3CCCCC3C)s2)cc1OC` (stereo not drawn) was tested. Which Potency did it give?
**A.** inconclusive [inhibitor, partial curve]

**Q.** For `COc1ccc(S(=O)(=O)Nc2nnc(C(C)C)s2)cc1`, which Potency is on record?
**A.** inconclusive [inhibitor, single point]

**Q.** For `Cc1ccc(C2c3c(oc4cc(C)c(C)cc4c3=O)C(=O)N2CCCN2CCOCC2)cc1` (stereo not drawn), which Potency is on record?
**A.** active: 11.2 µM

**Q.** `O=C(NNc1ccc([N+](=O)[O-])cc1)C1C2CCCCC21` (stereo not drawn) was tested. Which Potency did it give?
**A.** active: 25.1 µM

**Q.** How did the Potency turn out when `COc1cc(C2C(C#N)=C(N)N(Nc3ccccc3)C3=C2C(=O)CC(C)(C)C3)ccc1OCc1cccc(F)c1` (stereo not drawn) was run?
**A.** inconclusive [inhibitor, partial curve]

**Q.** With `CCOC(=O)Cc1csc(N/N=C\c2cccc(Br)c2)n1` as the molecule, how does the Potency read?
**A.** inconclusive [inhibitor, partial curve, poor fit]

**Q.** Which Potency does the source give for `O=C(/C=C/c1ccccc1)Nc1cc(S(=O)(=O)N2CCOCC2)ccc1N1CCCC1` here?
**A.** inconclusive [inhibitor, single point]

**Q.** For `Cc1ccc(-n2c3c(cc(C(=O)NC4CCSC4=O)c2=O)C(=O)CC(C)(C)C3)cc1` (stereo not drawn), which Potency is on record?
**A.** inconclusive [inhibitor, partial curve]

**Q.** For `CCCCCn1c(CN2CCN(Cc3ccccc3)CC2)nc2c1c(=O)n(C)c(=O)n2C`, which Potency is on record?
**A.** inconclusive [inhibitor, single point]
